{
  "source": "paper PMC4554999",
  "about": "(Bioorganic & medicinal chemistry, 2015)",
  "origin": "cited, not measured here",
  "biological_target": "rat α4β2-nAChR (Rattus norvegicus, UniProt P09483+P12390)",
  "details": "100 μM compound; previously determined value; ref [9]; cited from earlier work",
  "data": [
    {"smiles": "c1cnc2cc3c(cc2n1)[C@@H]1CNC[C@H]3C1", "note": "[varenicline]", "values": [
      {"measurement": "Antagonist Activity (% EC50 ACh remaining at 100 μM) α4β2", "result": "38 ± 2", "unit": "%"}
    ]}
  ]
}
